What was measured:
[1] = molecular target: T1, trimeric IL-2 receptor on HEK-Blue IL-2 reporter cells (UniProt P01589 22-272; P14784 27-551; P31785 23-369, limits assumed); assay: cell-based or functional assay
T1 sequence (looked up) 1: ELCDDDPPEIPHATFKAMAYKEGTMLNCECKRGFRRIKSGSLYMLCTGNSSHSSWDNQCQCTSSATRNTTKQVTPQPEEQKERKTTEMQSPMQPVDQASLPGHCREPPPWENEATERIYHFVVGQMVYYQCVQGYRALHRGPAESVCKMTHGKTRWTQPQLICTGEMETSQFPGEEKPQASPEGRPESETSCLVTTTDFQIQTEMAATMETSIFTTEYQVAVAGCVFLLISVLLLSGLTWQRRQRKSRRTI
T1 sequence (looked up) 2: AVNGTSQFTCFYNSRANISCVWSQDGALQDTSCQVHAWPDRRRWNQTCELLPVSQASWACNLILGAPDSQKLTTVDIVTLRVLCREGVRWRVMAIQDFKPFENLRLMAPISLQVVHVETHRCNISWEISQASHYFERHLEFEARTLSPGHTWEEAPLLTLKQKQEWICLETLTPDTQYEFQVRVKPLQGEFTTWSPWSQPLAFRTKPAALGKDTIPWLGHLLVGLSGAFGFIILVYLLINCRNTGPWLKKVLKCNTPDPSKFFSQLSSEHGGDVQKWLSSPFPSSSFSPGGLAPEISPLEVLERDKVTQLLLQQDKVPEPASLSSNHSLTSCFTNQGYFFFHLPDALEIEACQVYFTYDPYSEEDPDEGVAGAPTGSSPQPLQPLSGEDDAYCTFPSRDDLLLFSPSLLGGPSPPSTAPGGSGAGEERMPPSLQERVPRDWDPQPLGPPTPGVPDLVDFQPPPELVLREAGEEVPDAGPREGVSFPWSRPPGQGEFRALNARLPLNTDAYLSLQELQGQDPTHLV
T1 sequence (looked up) 3: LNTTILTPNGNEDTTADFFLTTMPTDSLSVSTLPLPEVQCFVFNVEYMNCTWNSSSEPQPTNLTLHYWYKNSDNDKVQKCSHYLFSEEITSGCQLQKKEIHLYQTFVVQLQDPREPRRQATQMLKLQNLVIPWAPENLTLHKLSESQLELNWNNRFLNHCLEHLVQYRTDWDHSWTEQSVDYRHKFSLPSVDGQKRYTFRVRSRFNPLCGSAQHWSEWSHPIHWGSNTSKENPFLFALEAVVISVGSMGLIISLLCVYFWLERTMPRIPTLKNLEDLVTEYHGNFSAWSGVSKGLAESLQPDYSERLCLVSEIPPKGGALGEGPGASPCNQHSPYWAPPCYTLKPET

[2] = molecular target: T2, IL-2R on murine splenocytes (C57BL/6); assay: cell-based or functional assay
T2 sequence (P01590 whole entry, looked up): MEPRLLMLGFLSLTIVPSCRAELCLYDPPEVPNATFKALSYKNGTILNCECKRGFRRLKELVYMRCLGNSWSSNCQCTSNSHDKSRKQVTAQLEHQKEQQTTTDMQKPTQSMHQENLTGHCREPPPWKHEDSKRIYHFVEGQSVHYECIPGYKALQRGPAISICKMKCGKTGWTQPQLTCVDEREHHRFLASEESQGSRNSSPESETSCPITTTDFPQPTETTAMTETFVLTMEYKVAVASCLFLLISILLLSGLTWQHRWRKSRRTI
T2 sequence (P16297 whole entry, looked up): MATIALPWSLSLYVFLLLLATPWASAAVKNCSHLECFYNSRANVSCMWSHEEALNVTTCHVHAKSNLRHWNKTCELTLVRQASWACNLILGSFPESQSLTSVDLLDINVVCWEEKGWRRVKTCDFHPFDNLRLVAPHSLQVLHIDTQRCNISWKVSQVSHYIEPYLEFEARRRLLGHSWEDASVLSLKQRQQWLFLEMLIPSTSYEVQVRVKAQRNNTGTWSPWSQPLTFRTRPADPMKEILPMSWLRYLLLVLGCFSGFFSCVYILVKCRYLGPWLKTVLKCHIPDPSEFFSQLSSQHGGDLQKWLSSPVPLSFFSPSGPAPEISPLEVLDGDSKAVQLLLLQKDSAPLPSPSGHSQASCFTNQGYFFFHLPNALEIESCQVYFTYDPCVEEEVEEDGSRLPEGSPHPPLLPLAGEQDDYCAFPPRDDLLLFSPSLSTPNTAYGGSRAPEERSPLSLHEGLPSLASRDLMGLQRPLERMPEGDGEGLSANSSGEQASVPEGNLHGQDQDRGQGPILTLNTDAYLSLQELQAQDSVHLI
T2 sequence (P34902 whole entry, looked up): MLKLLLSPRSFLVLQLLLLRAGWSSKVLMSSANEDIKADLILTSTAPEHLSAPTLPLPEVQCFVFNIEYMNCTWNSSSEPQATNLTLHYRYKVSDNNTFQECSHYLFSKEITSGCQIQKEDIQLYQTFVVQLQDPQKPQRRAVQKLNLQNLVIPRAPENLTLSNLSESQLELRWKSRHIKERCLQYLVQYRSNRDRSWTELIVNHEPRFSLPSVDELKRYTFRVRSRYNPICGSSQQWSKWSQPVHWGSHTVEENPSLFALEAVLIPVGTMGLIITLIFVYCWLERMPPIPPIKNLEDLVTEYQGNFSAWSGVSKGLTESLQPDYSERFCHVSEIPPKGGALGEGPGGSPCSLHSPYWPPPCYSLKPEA

[3] = molecular target: T3, monoclonal anti-human IL-2 antibody 5344 (BD, 555051); assay: sandwich ELISA, 5344 coated, fusion protein titrated, anti-human IgG-Peroxidase
T3 construct: Coated capture antibody
Method: The antibody-IL-2 fusion proteins were tested on a sandwich ELISA, to assess the correct folding of the IL-2 portion. […] The obtained signals (Absorbance 450-570 nm) were plotted as function of antibody-IL-2 fusion protein concentration (as log value). The $EC50$ values were interpolated fitting the data with GraphPad Prism 8 (Table 6).

[4] = molecular target: T4, His-tagged recombinant CD25 (human, UniProt P01589 22-213, limits assumed); assay: SPR (BIAcore 3000), His-tagged CD25 captured via TrisNTA Biotin on SA chip, kinetic titration of fusion protein
T4 construct: Captured via TrisNTA Biotin on SA chips; also called IL-2 receptor alpha; IL-2Rα; not shown: His tag
T4 sequence (looked up): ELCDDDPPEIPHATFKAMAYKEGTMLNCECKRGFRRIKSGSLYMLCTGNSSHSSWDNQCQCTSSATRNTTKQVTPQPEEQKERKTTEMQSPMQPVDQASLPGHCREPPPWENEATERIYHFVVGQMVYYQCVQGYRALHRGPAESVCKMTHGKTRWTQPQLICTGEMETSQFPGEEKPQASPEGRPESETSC
Method: HEK-Blue™ IL-2 reporter cells (Invivogen) were incubated with a dilution series (1:3 dilutions from 0.56 nM) of antibody-IL-2 fusion protein in growth medium for 20 hours Example 4. IL-2 fusion protein in vitro selectivity Binding affinities to CD25 measured by SPR Binding affinities of the IL-2 fusion protein to the IL-2 receptor CD25 were measured by SPR (BIAcore 3000, GE Healthcare, 33-1140587-3682). His-tagged recombinant CD25 was captured via TrisNTA Biotin on SA chips and Kinetic titration of IL-2 fusion proteins of the present invention was performed reaching concentrations up to 500 nM.

[5] = molecular target: monoclonal anti-human IL-2 antibody Nara1; assay: ELISA, Nara1 coated, fusion protein titrated, anti-human IgG-Peroxidase; lowest concentration with signal at or above the cut point

B1: GLK754 (other)
heavy: EVQLVQSGAEVKKPGESLKISCKGSGYSFTNFYIHWVRQAPGQRLEWMGSIYPNYGDTAYNQKFKDRFVFSLDTSVSTAYLQISSLKAEDTAVYYCARGYSYAMDYWGQGTTVTVSS[omitted - human IgG1 constant region]
light: DIQMTQSPSSVSASVGDRVTITCSASQGISGGGGGSGGGGSGGGNFHLRPRDLISNINVIVLELKGSETTFMCEYADETATIVEFLNRWITFSQSIISTLTPTSSSTKKTQLQLEHLLLDLQMILNGINNYKNPKLTRMLTFKFYMPKKATELKHLQCLEEELKPLEEVLNLAQSKGGGGSGGGGSGGGGDLNWYQQKPGKAPKLLIYHTSSLHSGVPSRFSGSGSGTDFTLTISSLQPEDFATYYCQYYSKDLLTFGGGTKLEIKRTVAAPSVFIFPPSDEQLKSGTASVVCLLNNFYPREAKVQWKVDNALQSGNSQESVTEQDSKDSTYSLSSTLTLSKADYEKHKVYACEVTHQGLSSPVTKSFNRGEC
notes: Antibody-IL-2 fusion on Antibody C; also called IL-2 fusion protein to antibody C, linker 1 13 AA, linker 2 14 AA
- EC50 (M), SEAP of HEK-Blue IL-2 reporter cells [1]: 5.58e-12 M
- EC50 CD8 cells (nM), pSTAT5 MFI [2]: 70.5 nM
- EC50 NK cells (nM), pSTAT5 MFI [2]: 2.5 nM
- EC50 Treg cells (nM), pSTAT5 MFI [2]: < 0.016 nM
- EC50 [3]: 280 pM
- Kd [4]: 200 pM
- Lowest concentration (nM) OD450-570 ≥ CP [5]: < 0.09 nM

Reference: patent publication US11773160 (ANAVEON, dated 2023)
